The record followed here is patent publication US12509496B2 (Shanghai Minwei Biotechnology Co., LTD, priority 2020, dated 2025).

The experiment is described as follows: Body weight reduction by multiple subcutaneous injections in DIO mice. The format is in vivo, C57BL/6Nju mice. Here is the method: In this example, the effect of subcutaneous injection of the Fc fusion protein 1 on the body weight of DIO mice was studied, and the efficacy was compared with dulaglutide and semaglutide.
7-week-old C57BL/6Nju mice were fed with a high-fat diet (of about 20% protein and about 60% fat) for 12 weeks for modeling. Feeding conditions: 12 hours of light and 12 hours of darkness every day, ad libitum to feed and water, temperature 20-25° C., relative humidity 40-70%, ventilation frequency 10-15 times/hour.
According to body weight, water consumption, and food intake, the mice were randomly divided into groups the day before administration. Group design: 30 nmol/kg dulaglutide group, 30 nmol/kg semaglutide group, high dose (30 nmol/kg) group and low dose (10 nmol/kg) group of the same test sample, normal control group, model control group. A total of 6 groups with 6 mice in each group.
The subcutaneous injection was conducted as follows: the model control group and the normal control group were administrated with 0.05 ml/10 g body weight of PBS, twice a week for 4 consecutive weeks, a total of 8 times of administration. The body weight, food intake, and water consumption of mice were monitored regularly.
After the administration, the animals were dissected, and the liver, kidney, pancreas, inguinal fat, subcutaneous fat, scapular fat, perirenal fat, mesenteric adipose, and epididymal fat were separated and weighed. The data were shown as mean±standard error (X±s), and statistically analyzed by Student-t test.

B1: Fc fusion protein 1: GLP-1 mutant (SEQ ID NO: 7) fused by linker to IgG4 Fc fragment; SEQ ID NO: 12 (protein)
chain: HSQGTFTSDYSKYLDEQAAKEFIAWLIAGGPSSGAPPPSGGGGGSGGGGSGGGGSA[human IgG4 Fc with S228P F234A L235A (EU numbers) omitted]
modifications: Fc Fusion Protein 1
Turning to B1, where the note is “10 nmol/kg s.c. twice a week for 4 weeks, compared with 30 nmol/kg semaglutide”, the “weight reduction effect, low dose” value is “equivalent to that of the semaglutide high dose group”. Also, the “weight reduction effect, high dose” value (30 nmol/kg s.c. twice a week for 4 weeks, compared with 30 nmol/kg semaglutide) is on record as “significantly better weight reduction effects than those of the same dose of semaglutide”. The food intake entry (10 and 30 nmol/kg s.c., compared with semaglutide group) is “could reduce the food intakes of mice at different doses, and the food intakes were all fewer than those of the semaglutide group”. For the same molecule, for the setting “after 4 weeks of administration, compared with semaglutide”, the fat mass result was “could significantly reduce the fat mass of DIO mice, and the effect was equivalent to semaglutide”.
